Among all 48,000 compounds or so, about 550 (1.1%) were called active. Not shown: some 4% with an inconclusive outcome. No stated cut-off is given here; in the data, active means potency below about 15 µM; inconclusive means mostly about 16 µM to 33 µM; inactive means weaker than that. The list shows a part of the results.
Potency means the concentration at half of the fitted maximal effect.

The assay has as its target Lysosomal acid glucosylceramidase (Homo sapiens) (UniProt P04062). In words: Glucocerebrosidase.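 Further: the screen sought inhibitors.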 Particulars: purified enzyme, resorufin glucoside fluorescence (screen aimed at inhibitors), 20 min. In a few lines: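 Compounds titrated against 0.2 nM normal enzyme, 30 uM resorufin beta-D-glucopyranoside substrate, citrate/phosphate buffer with taurocholate and tween-20, pH 5.9. Reaction ran 20 min at room temperature; fluorescence (Ex 548/Em 600) gave AC50.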
UniProt P04062, sequence (P04062 whole entry, looked up): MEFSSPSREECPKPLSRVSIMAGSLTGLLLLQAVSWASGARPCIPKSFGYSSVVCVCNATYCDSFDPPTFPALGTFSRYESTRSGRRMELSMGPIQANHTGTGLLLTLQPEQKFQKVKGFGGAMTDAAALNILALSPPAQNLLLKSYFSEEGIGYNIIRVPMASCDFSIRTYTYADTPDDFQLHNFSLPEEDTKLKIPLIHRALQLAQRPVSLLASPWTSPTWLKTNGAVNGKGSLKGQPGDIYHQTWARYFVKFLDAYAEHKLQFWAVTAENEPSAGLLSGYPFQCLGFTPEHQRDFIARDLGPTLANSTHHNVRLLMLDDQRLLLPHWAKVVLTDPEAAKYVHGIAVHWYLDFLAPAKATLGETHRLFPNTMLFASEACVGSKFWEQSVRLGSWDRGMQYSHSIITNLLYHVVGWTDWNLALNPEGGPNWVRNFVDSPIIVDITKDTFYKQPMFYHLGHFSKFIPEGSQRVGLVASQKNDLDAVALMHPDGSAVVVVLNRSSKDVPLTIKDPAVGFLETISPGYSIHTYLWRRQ
For the molecule `CCOC(=O)N1CCN(C(=O)c2ccc(C#CC3(O)CCCCC3)cc2)CC1`, the Potency is inactive: > 76.9 µM. As for `O=C(NCc1ccccn1)C1CCN(S(=O)(=O)c2cnc[nH]2)CC1`, the Potency was inactive: > 76.9 µM.

`COc1cccc(-n2nnnc2SCC(=O)NCc2ccco2)c1`: the Potency was inactive: > 76.9 µM.

Regarding `COc1ccc2c3c(c(=O)oc2c1OCC(=O)C(C)(C)C)CCCC3`, the Potency is inactive: > 76.9 µM. As for `Nc1nnc(SCc2cc3c(cc2Cl)OCO3)s1`, the Potency was inactive: > 76.9 µM. With `O=C(CSc1nnc2ccccn12)NC(=O)NC1CCCC1`, the Potency was inactive: > 76.9 µM. Consider `COc1ccccc1C(=O)Nc1ccc(S(=O)(=O)N2CCOCC2)cc1`, for which the Potency is inactive: > 76.9 µM. Turning to `CCCNC(=O)Cn1cnc2sc(C(=O)N3CCCC(C(=O)OCC)C3)c(C)c2c1=O` (centres undefined), the Potency was inactive: > 76.9 µM.

As to `Cc1ccc(NS(=O)(=O)c2ccc(C(=O)N3CCCN(C)CC3)cc2)cc1`, the Potency is inactive: > 76.9 µM. The figure for `CCOC(=O)c1[nH]c2ccc(OC)cc2c1NC(=O)CN1CCC2(CC1)OCCO2` is inactive: > 76.9 µM. `CCOC(=O)c1ncn2c1C(=O)OC2(C)C`: the Potency was inactive: > 76.9 µM. `COc1ccc(Cl)cc1NC(=O)C1CCCN(S(=O)(=O)c2cccc3nonc23)C1` (centres undefined): the Potency was inactive: > 76.9 µM.

For `O=C1c2ccccc2-c2ccc(C(=O)N3CCOCC3)cc21`, the Potency is inactive: > 76.9 µM. In the case of `O=C(Cn1nnc(-c2ccc(Cl)cc2)n1)NCC1CCCCC1`, the Potency was inactive: > 76.9 µM.

`COc1ccc(F)cc1CN1CCN(C(=O)CCC(=O)Nc2nnc(C(C)C)s2)CC1`: the Potency was inactive: > 76.9 µM.

Consider `Cc1ccc(N2C(=O)C(Cl)=C(Nc3c(C)n(C)n(-c4ccccc4)c3=O)C2=O)cc1`, for which the Potency was inactive: > 76.9 µM. As for `COc1ccc(C2C=C(c3ccc(Br)s3)Nc3ncnn32)cc1OC` (centres undefined), the Potency is inactive: > 76.9 µM. `Nc1nncn1C(=O)c1cccs1`: the Potency was inactive: > 76.9 µM. For the molecule `Clc1cccc(N2CCN(CCNc3nc4ccccc4n4cnnc34)CC2)c1`, the Potency was inactive: > 76.9 µM.

Regarding `O=c1c2c(-c3ccccc3)csc2nc2n1CCC2`, the Potency was inactive: > 76.9 µM. As to `Cc1c(C(=O)Nc2cccc(C(F)(F)F)c2)oc2ccc(S(=O)(=O)N3CCOCC3)cc12`, the Potency result is “inactive”. As to `CCn1nnnc1SCC(=O)Nc1ccc(OCc2ccccc2)cc1`, the Potency is inactive: > 76.9 µM.

As to `COC(=O)C(CC(=O)Nc1cc(C)ccc1C)Nc1ccccc1OC` (centres undefined), the Potency was inactive: > 76.9 µM. As to `O=C(CCC1N=C2c3ccccc3N=C(SCc3ccccc3Cl)N2C1=O)NCc1ccco1` (centres undefined), the Potency was inactive: > 76.9 µM. As to `CCOC(=O)C1CCN(C(=O)Nc2ccc(Cl)cc2Cl)CC1`, the Potency was inactive: > 76.9 µM.

As to `CCOCc1nnc(NC(=O)COC)s1`, the Potency was inactive: > 76.9 µM. Turning to `CCN(CC)c1ccc(NC(=O)CN2CCN(c3ccc(F)cc3)CC2)cc1`, the Potency was inactive: > 76.9 µM.

`CCOC(=O)Nc1cccc(Cl)c1C`: the Potency is inactive: > 76.9 µM. The figure for `Cc1[nH]n2c(=O)c3c(nc2c1-c1ccc(Cl)cc1)CCC3` is active: 11.7 µM; for `O=C1NC2(CCCc3ccccc32)C(=O)N1Cc1nnc(-c2ccccc2Br)o1` (centres undefined) it is inactive: > 76.9 µM; for `Cc1c(C(=O)N2CCOCC2)sc(NC(=O)c2ccc3c(c2)OCO3)c1C#N` it is inactive: > 76.9 µM.

`N#CCSCC(=O)Nc1ccc(F)cc1`: the Potency was inactive: > 76.9 µM. Turning to `CCOc1ccc2nc(NC(=O)CSc3nnc(-c4ccncc4)n3CC3CCCO3)sc2c1` (centres undefined), the Potency was inactive: > 76.9 µM. Regarding `Cc1noc(C)c1CSc1nc2ccccc2nc1NS(=O)(=O)c1ccc(Cl)cc1`, the Potency is inactive: > 76.9 µM. As for `O=c1c2ccccc2nnn1CSc1nc2ccccc2c(=O)n1Cc1ccco1`, the figure is inactive: > 76.9 µM; as for `Cc1cc(C(=O)NCCC2=CCCCC2)c(C)o1`, inactive: > 76.9 µM; as for `Cc1ccc(C)c(N2CCN(C(=O)c3cc(S(=O)(=O)N4CCOCC4)ccc3F)CC2)c1`, inactive: > 76.9 µM. As for `CC1CCCC(C)N1C(=O)c1cc(-c2cccs2)on1` (centres undefined), the Potency is inactive: > 76.9 µM. As for `Cc1cccc(NC(=O)CNc2cc(C)ccc2C)c1`, the figure is inactive: > 76.9 µM; as for `CC12COC3(C(=O)Nc4cccnc4)CC1CCC32C` (centres undefined), inactive: > 76.9 µM. Turning to `CCC(C)c1ccc(O)c(NC(=O)c2cncc(Br)c2)c1` (centres undefined), the Potency is inactive: > 76.9 µM. Consider `O=C1CCCc2c1cc(C(=O)NCc1ccco1)c(=O)n2-c1ccc(Cl)cc1`, for which the Potency was inactive: > 76.9 µM. As for `C(=N\n1cnnc1)/c1ccc2c(c1)OCCO2`, the figure is inactive: > 76.9 µM; as for `CC1CN(c2nc3ccccn3c(=O)c2/C=C(\C#N)S(=O)(=O)c2ccccc2)CC(C)O1` (centres undefined), inactive: > 76.9 µM; as for `COc1ccc(CCNC(=O)CC2COc3ccccc3O2)cc1OC` (centres undefined), inactive: > 76.9 µM. As for `O=C(COc1ccc(S(=O)(=O)N2CCCC2)cc1Cl)Nc1ccc2c(c1)OCO2`, the Potency is inactive: > 76.9 µM. In the case of `CCOC(=O)C1=C(C)NC(=O)NC1c1cccc(O)c1` (centres undefined), the Potency is inactive: > 76.9 µM. Turning to `COCCCn1c(C(C)C)nc2oc3cc(OC)ccc3c(=O)c2c1=O`, the Potency was inactive: > 76.9 µM. In the case of `CCSC1=NCN(CCCC(=O)O)CN1`, the Potency is inactive: > 76.9 µM. Turning to `c1coc(-c2nn3c(-c4ccco4)nnc3s2)c1`, the Potency was inactive: > 76.9 µM. Take `Cc1ccc2c(CSc3nc4ccccc4c(=O)n3CCCO)cc(=O)oc2c1`: the Potency was inactive: > 76.9 µM. Regarding `Cc1ccc(NC(=O)COc2nc(C)cs2)cc1`, the Potency was inactive: > 76.9 µM.

Turning to `CCC(C)(C)n1c(=O)[nH]c2c(c1=O)CCC2`, the Potency was inactive: > 76.9 µM. As for `CC(C)(C)NC(=O)CN(C(=O)CS(=O)CC(=O)Nc1ccc(F)cc1)c1ccc(Cl)cc1` (centres undefined), the figure is inactive: > 76.9 µM; as for `CS(=O)(=O)c1ccc2nc(NC(=O)Oc3ccccc3)sc2c1`, inactive: > 76.9 µM. As to `O=C(Nc1ccccc1)c1ccc(S(=O)(=O)NCc2ccco2)cc1`, the Potency is inactive: > 76.9 µM.

Take `CC(=O)c1cccc(NC(=O)NC(C)C2CCCO2)c1` (centres undefined): the Potency was inactive: > 76.9 µM. As for `COc1cc(CNc2nc3ccccc3[nH]2)cc(OC)c1OC`, the figure is inactive: > 76.9 µM; as for `O=C(NC1(C(F)(F)F)Oc2ccccc2O1)N1CCCC1`, inactive: > 76.9 µM.

For the origin of these results see PubChem BioAssay AID360 (National Center for Advancing Translational Sciences (NCATS), 2006).
